Reference: PubChem BioAssay AID686978 (National Center for Advancing Translational Sciences (NCATS), 2013)
About 64,000 (15%) of roughly 420,000 compounds were called active. Inconclusive results, whose numbers are uncertain, are shown with a selection of clear calls. Calls come from the whole dose curve; as a rule, active = well fitted inhibition curve with a large enough effect; inconclusive = small, poorly fitted or top-dose-only effect; inactive = flat fitted curve, though single readings scatter. No potency is given beside an inconclusive call; the fits are too rough.

Assay: qHTS for Inhibitors of human tyrosyl-DNA phosphodiesterase 1 (TDP1): qHTS in cells in absence of CPT; note: nearly all actives have a fitted effect of over 55% in size
Conditions: DT40 Tdp1-/- hTDP1 cells, no CPT, ATP luminescence, 48 h; activity change, negative = growth inhibition: at 46.2 µM (top of the series) unless noted
How it was run: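 Growth of hTDP1-complemented DT40 Tdp1-knockout cells is measured by ATP luminescence after at least 48 hr compound exposure at 37 °C, with DMSO substituting for the 20 nM CPT used in the parallel screen.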
% is set by controls: 0 for no effect and ±100 for the full control effect; potency is the fitted concentration of half-maximal effect; tags give direction and shape of the fitted curve.

SMILES	activity change, negative = growth inhibition	Potency
COc1ccc(/C=N/NC(C)(C)C)c(OC)c1	inactive: -22%	–
CCOc1ncccc1C(=O)N1CCN(c2cc(Cl)ccc2C)CC1	–	active: 0.651 µM
COC(=O)c1cc(OC)c(OC)cc1NC(=O)c1ccccc1	–	inconclusive [inhibitor, single point]
C=CCN1C(=O)c2ccc(C(=O)N3CCN(S(=O)(=O)c4cc(C)ccc4C)CC3)cc2C1=O	inactive: -4.22%	–
CCOC(=O)CCCCCC(=O)Nc1ccc2c(c1)C(=O)N([C@H](C)CO)C[C@H](C)[C@@H](CN(C)C(=O)Nc1ccccc1)OCCCC[C@@H](C)O2	–	inconclusive [inhibitor, single point]
CCc1noc(C)c1C(=O)Nc1nc2ccc(S(C)(=O)=O)cc2s1	–	inconclusive [inhibitor, partial curve]
N#C/C(=C\c1cn(Cc2ccccc2)c2ccccc12)C(=O)NCc1ccco1	–	inconclusive [inhibitor, partial curve]
COc1cccc(Cn2cnc(-c3ccccc3OC)c2-c2cccs2)c1	–	inconclusive [inhibitor, single point]
COc1ccc2c(Sc3ccc(C)cc3)c(C(=O)NC(C)C)[nH]c2c1	–	inconclusive [inhibitor, single point]
Cc1ccc(NS(=O)(=O)c2ccc3c(c2)NC(=O)CO3)cc1C	–	inconclusive [inhibitor, partial curve]
CC1(C(=O)NS(=O)(=O)C2CC2)CCN(C(=O)c2cccc(OC(F)(F)F)c2)C1 (configuration not stated)	–	inconclusive [inhibitor, single point]
S=C(Nc1ccc(Nc2ccccc2)cc1)Nc1ccccn1	–	active: 6.51 µM
COc1ccc(C(=O)NCCS(=O)(=O)N2CCc3ccccc3C2)cc1	inactive: -10.9%	–
O=C(NCCc1cccc(Cl)c1)C1CCC(=O)N(Cc2ccc(Cl)cc2)C1 (configuration not stated)	–	inconclusive [inhibitor, single point]
CCCCCn1c(N2CCN(c3cccc(Cl)c3)CC2)nc2c1c(=O)[nH]c(=O)n2C	–	active: 23.1 µM
N#Cc1c(-c2ccc(F)cc2)c(-c2ccc(F)cc2)nn(CCO)c1=O	–	active: 3.26 µM
CC(C)c1ccc(OCC(=O)Nc2ccncc2)cc1	–	inconclusive [inhibitor, partial curve]
O=c1oc2ccccc2c(N2CCN(c3ccccc3F)CC2)c1CN1CCCC1	–	inconclusive [inhibitor, single point]
Cc1nc(CNS(=O)(=O)c2cccc(F)c2)cs1	inactive: -7.06%	–
COc1cc(C(=O)NCC(=O)N/N=C(/C)c2ccc3c(c2)CCCC3)cc(OC)c1OC	–	inconclusive [inhibitor, partial curve]
COC(=O)C1=C(O)C(C(=O)OC)C(c2ccc(C)cc2)C(C#N)(C#N)C1c1ccc(C)cc1 (configuration not stated)	–	active: 4.11 µM
COc1ccccc1CNC(=O)CSc1ccc(C(=O)Nc2ccccc2OC)cc1[N+](=O)[O-]	–	active: 9.2 µM
CCCc1cc(=O)oc2cc(C)c3c(-c4ccccc4)coc3c12	–	inconclusive [inhibitor, single point]
CSc1nc(SCC(=O)NCc2ccco2)c2c3c(sc2n1)CN(C)CC3	inactive: 0.592%	–

SMILES	activity change, negative = growth inhibition	Potency
COC(=O)c1cc2c(ccn2-c2ccc(F)cc2)n1CC(=O)N1CCN(C(=O)c2ccco2)CC1	–	inconclusive [inhibitor, single point]
C=CCn1c(=O)c(C(C)=O)cn(N(C)c2ncc(C(F)(F)F)cc2Cl)c1=O	inactive: -9.54%	–
CCN(CC)S(=O)(=O)c1ccc(N=NC2=C(O)CC(C)(C)CC2=O)cc1	–	inconclusive [inhibitor, single point]
CCOc1ccccc1N1CCN(C(=O)c2ccccc2SCC(=O)N2CCCC2)CC1	–	inconclusive [inhibitor, single point]
CCCCNC(=S)Nc1ccc(SC(F)F)cc1	–	inconclusive [inhibitor, single point]
Nc1cc(-c2ccc(Br)cc2)[nH]n1	–	inconclusive [inhibitor, partial curve, poor fit]
COc1cc(C2CC(=O)Oc3c(C(CCN4CCN(c5ccccc5)CC4)c4ccc(N(C)C)cc4)c(OC)cc(OC)c32)cc(OC)c1OC (configuration not stated)	–	inconclusive [inhibitor, single point]
Cc1cc(C)cc(N2CCCn3c2nc2c3c(=O)n(CC(=O)OCc3ccccc3)c(=O)n2C)c1	–	inconclusive [inhibitor, single point]
COc1cccc(NC(=O)C(Cc2ccccc2)NS(=O)(=O)c2ccc3c(c2)c(=O)n(C)c(=O)n3C)c1 (configuration not stated)	–	inconclusive [inhibitor, single point]
Cc1nc2cc(-c3ccccc3)nn2c(N)c1-c1ccccc1	inconclusive: -30.8% [inhibitor]	–
CC(C)(C)c1ccc(C(=O)N2CCC2(C)C(=O)NS(=O)(=O)c2ccccc2Cl)cc1 (configuration not stated)	inactive: -19.5%	–
Cc1ccc(NC(=O)C(=O)C2C(=O)Nc3ccccc32)cc1 (configuration not stated)	–	inconclusive [inhibitor, partial curve, poor fit]
C(=C\c1ccccc1)/CN1CCN(C(c2cccs2)c2nnnn2-c2ccc3c(c2)OCCO3)CC1 (configuration not stated)	–	active: 23.1 µM
NS(=O)(=O)c1ccc(NC(=O)Nc2ccccc2)cc1	inactive: -15.7%	–
O=C(NCc1cccnc1)c1cc(C2CCCCN2C(=O)c2ccc3ccccc3c2)on1 (configuration not stated)	–	inconclusive [inhibitor, single point]
O=C(CN1CCOCC1)NNc1nc(-c2ccccc2)c2cc(Br)ccc2n1	–	inconclusive [inhibitor, partial curve]
CCn1c2c(c(C)cc1=O)C(=O)CC(C)(C)C2	inactive: -22.9%	–
CN1CCCN(C(=O)Cc2c(Cl)cccc2Cl)c2nc3ccccc3nc21	inactive: -22.1%	–
CC(=O)OCCc1c2ccccc2c(CCCN(C)C)c2ccccc12	–	inconclusive [inhibitor, single point]
CSc1ccc(CN2CCC2(C)C(=O)NC2CCN(Cc3ccccc3)CC2)cc1 (configuration not stated)	–	active: 18.4 µM
COc1ccc(C2=C(C=O)Cc3ccccc3O2)cc1	–	inconclusive [inhibitor, single point]
Cc1c(N=C2Nc3cccc4cccc2c34)c(=O)n(-c2ccccc2)n1C	–	inconclusive [inhibitor, single point]
O=C(CN1C(=O)CSc2ccc(S(=O)(=O)N3CCCC3)cc21)Nc1cccc(Cl)c1	–	active: 23.1 µM
Cc1cc(C)n2nc(C(=O)N3CCN(Cc4ccc5c(c4)OCO5)CC3)nc2n1	inactive: -14.8%	–

SMILES	activity change, negative = growth inhibition	Potency
Cc1cccc(C(=O)Nc2ccc(NC(=O)c3ccccc3)cc2)c1	–	inconclusive [inhibitor, single point]
CN(c1ccc(C(=O)Nc2cccc(O)c2)cc1)S(=O)(=O)c1ccccc1	–	inconclusive [inhibitor, single point]
Nc1nc(NCc2ccco2)nc(Nc2cccc(F)c2)c1[N+](=O)[O-]	inactive: 5.97%	–
Cc1cc2ccccc2n1CCNC(=O)c1ccc(Br)cc1	–	active: 20.6 µM
CCc1nc2nc(C)cc(Nc3cccc(C)c3C)n2n1	inactive: -16.4%	–
CC(C)c1ccc(NC(=S)NC2CCCCCC2)cc1	–	inconclusive [inhibitor, single point]
COc1ccccc1NC(=O)Cn1nnc(-c2ccccc2NC(=O)c2cc3ccccc3oc2=O)n1	inactive: -8.15%	–
Cc1cccc(C2CC(=O)Nc3cc4c(cc32)OCO4)c1 (configuration not stated)	–	active: 20.6 µM
Cc1cccc(-n2ccnc2SCC(=O)Nc2nnc(C)s2)c1	–	active: 14.6 µM
COc1nc2c(c(-c3cc(Br)cs3)c1C#N)Cc1ccccc1-2	–	active: 25.9 µM
CCCCc1c(C)[nH]c2nc3ccccc3n2c1=O	inactive: 1.16%	–
O=C(CCNC(=O)c1ccc(Br)cc1)NNC(=O)C1COc2ccccc2O1 (configuration not stated)	inactive: -11.9%	–
CS(=O)(=O)Nc1cccc(NC(=O)C2Cc3c(-c4ccccc4)ccnc3O2)c1 (configuration not stated)	–	active: 7.31 µM
COc1ccc(-c2c(C(C)=O)c(C)nc3sc4c(=N)n(N)cnc4c23)cc1	–	inconclusive [inhibitor, partial curve]
Cc1ccc(NC(=O)C2(C)CCN2C(C)C)cc1C (configuration not stated)	–	inconclusive [inhibitor, single point]
CN(C)Cc1cn(-c2ccccc2)nc1-c1ccccc1	–	inconclusive [inhibitor, single point]
CCN1CCN(c2ccc(S(=O)(=O)N3CCCCC3)cc2NC(=O)/C=C/c2ccc([N+](=O)[O-])cc2)CC1	–	inconclusive [inhibitor, single point]
CC(C)c1ccc(OCC(=O)N(Cc2cccs2)C2CCS(=O)(=O)C2)cc1 (configuration not stated)	–	inconclusive [inhibitor, single point]
Cc1ccc(/C=N/n2cc(-c3ccccc3)[nH]c2=S)s1	–	active: 5.17 µM
COc1ccc(N2CCC(CNC(=S)Nc3c(C)cc(C)cc3C)C2)cc1 (configuration not stated)	–	inconclusive [inhibitor, single point]
CC(=O)NCCc1nc2cc(NC(=O)COc3ccc(C)cc3)ccc2n1C	inactive: 3.82%	–
C=C(C)CSc1nc(-c2ccccc2)cc(-c2ccc(OC)cc2)c1C#N	–	inconclusive [inhibitor, single point]
COc1ccc(NC(=O)COC(=O)c2ncc(Cl)c(Cl)c2Cl)c(OC)c1	inactive: 0.999%	–
O=C(NCc1ccc(OC(F)(F)F)cc1)C1CC2Cn3c(nc4ccccc43)C2N1Cc1ccccc1 (configuration not stated)	–	inconclusive [inhibitor, partial curve]
